# Test results reported in paper PMC12040169 (PLOS Biology, 2025).
# The other results are listed elsewhere or left out.
# Tested on: T1, C. trachomatis L2/434/Bu expressing GFP (CTL2-GFP)
# T1 construct: L2/434/Bu GFP intracellular growth in HeLa cells
# Set-up: species or system HeLa; C. trachomatis total inclusion area by high-content imaging, normalised to DMSO
# Conditions: total inclusion area; 28.5 h, 10 µM; inhibitor
# In short: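 Bulk GFP and resorufin signals were read first. Wells were then fixed, stained with Hoechst and imaged to detect GFP inclusions and host nuclei. MICs followed the previously described calculation.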
row,Compound,% of control remaining
1,CCCCc1ccc(C(N)=O)nc1C(N)=O [CBK005061],62.596
2,Nc1ncc(-c2ccc(-c3ccccc3F)cc2)c2cccnc12 [CBK067597],85.0715
3,C=CCOC(=O)N1CCC(C(=O)NC(c2ccccn2)c2ccccc2C)CC1 (stereo not drawn) [CBK059689],99.4824
4,COc1ccc(/C=C2\S/C(=N/N=C/c3ccc(OC)cc3)N(c3ccc(O)cc3)C2=O)cc1 [CBK262780],107.668
5,COc1ccccc1-c1cccc(CC2(C(=O)NCCc3ccccc3)CCOCC2)c1 [CBK285593],99.9898
6,CCn1nc(C(C)C)cc1C(=O)N1CC2(CCNCC2)CC1C(=O)O (stereo not drawn) [CBK307179],98.4743
7,Cc1ccc(C(C)CCN2CC3CCCN3C[C@H]2C)o1 (stereo partly drawn) [CBK285467],107.126
8,Cc1ccc(OCCSc2nnc3[nH]c4ccccc4n23)cc1 [CBK267922],109.299
9,CCCOc1ccc(-c2cc(C(=O)NO)n[nH]2)cc1C [CBK288362],44.3885
10,COC(=O)c1ccccc1OCCc1csc(NS(=O)(=O)c2cccc(Cl)c2C)n1 [CBK023735],89.5756
11,O=S(=O)(Nc1ccc(C(O)(C(F)(F)F)C(F)(F)F)cc1)c1ccc(Cl)c(Cl)c1 [CBK062102],105.528
12,COc1cccc(CC(=O)N2CCCC2c2nc3ccccc3[nH]2)c1 (stereo not drawn) [CBK283665],115.475
13,CCN(CC)c1ccc(SC)n1C [CBK020929],48.5931
14,CCn1cc(C2CN(S(=O)(=O)c3cccc(COC)c3)CCO2)cn1 (stereo not drawn) [CBK304222],16.2388
15,c1ccc(-c2n[nH]c(-c3ccncc3)c2-c2nc3ccccc3[nH]2)cc1 [CBK262180],99.1223
16,CCN(CC)CCO/N=C1\CC2(CCCCC2)c2ccccc21 [CBK013325],42.2099
17,CC(C)NC(=O)CN(C)Cc1nc(-c2cccc(C(F)(F)F)c2)no1 [CBK306036],66.3273
18,CCN1CCN(C(=O)c2ccccc2N(Cc2ccccc2)S(=O)(=O)c2ccc(C)cc2)CC1 [CBK266827],102.995
19,Cc1nn(C)c(Cl)c1S(=O)(=O)Nc1nn(Cc2ccc(C#N)cc2)c2ccccc12 [CBK048185],91.2327
20,O=C(O)CCCCCNC(=S)Nc1cccc(Cl)c1 [CBK288446],55.3363
21,O=C(O)C1CCCN1C(=O)Nc1ccccc1Cl (stereo not drawn) [CBK161381],51.8272
22,COC(=O)c1c(NC(=O)C(Sc2ccccc2)c2ccccc2)sc2c1CCC(C(C)(C)C)C2 (stereo not drawn) [CBK262603],95.1338
23,COc1ccc(Br)cc1/C=N/Nc1nc(NCc2ccccc2)nc(N2CCOCC2)n1 [CBK261232],97.7372
24,Cc1ccc(-c2nnc(CNC(=O)Cc3ccc(F)cc3)o2)s1 [CBK284645],102.252
25,COC(=O)c1cn(C(=O)CCCN2C(=O)c3ccccc3C2=O)c2ccccc12 [CBK266799],111.986
26,O=S(=O)(Nc1ccc2[nH]ccc2c1)c1ccc(Br)cc1F [CBK153510],97.6395

row,Compound,% of control remaining
1,O=C(O)CCC(=O)NN1C(=O)c2ccccc2NC1c1ccc(F)cc1 (stereo not drawn) [CBK286905],76.9373
2,O=[N+]([O-])c1ccc(Sc2nnc(COc3ccccc3)n2-c2ccccc2)nc1 [CBK265041],66.226
3,CN1CCN(C(=O)c2ccccc2N(Cc2ccccc2)S(C)(=O)=O)CC1 [CBK266267],102.334
4,Oc1cc(C(F)(F)F)nc(SCc2ccc(Cl)cc2)n1 [CBK002305],100.642
5,CCOC(=O)c1ccsc1NC(=O)C1CC=CCC1C(=O)O (stereo not drawn) [CBK270291],104.722
6,Cn1cc(-c2nccnc2OC(c2ccccc2)c2ccccc2)cn1 [CBK107073],105.314
7,COc1cc(-c2nccnc2N(C)Cc2ccccc2)cc(OC)c1OC [CBK037424],129.304
8,COc1ccccc1CNc1ccc(C(=O)O)cc1 [CBK078187],85.2523
9,CCOC(=O)c1c(NC(=O)/C=C/C(=O)O)sc2c1CCCCC2 [CBK265299],79.6193
10,CC(C)Nc1nccnc1SCc1ccc(Cl)c(Cl)c1 [CBK103657],84.8625
11,CC(=O)c1ccc(-c2cc(C(=O)NC3CCc4ccccc43)cnc2-c2ccc(Cl)cc2)s1 (stereo not drawn) [CBK036762],95.098
12,Cc1csc2c(C3CCN(C(=O)c4ccccn4)CC3)nc(C)n12 [CBK285244],98.0513
13,Nc1ncnc2c1nc(OCc1ccccc1)n2C1CC(O)C(CO)O1 (stereo not drawn) [CBK201164],107.071
14,CC(Oc1ccc(Cl)cc1Cl)C(=O)Nc1ccc(O)cc1 (stereo not drawn) [CBK264120],118.444
15,CC1CCCN(CC(C)(C)NC(=O)c2cc(C3CC3)on2)C1 (stereo not drawn) [CBK281677],108.538
16,Cc1csc(C(Cc2ccsc2)NC(=O)c2scnc2C)n1 (stereo not drawn) [CBK285098],81.8464
17,CSc1nnc(SCC(=O)N2CCC(C(F)(F)F)CC2)s1 [CBK057829],64.6616
18,Cc1cc(=O)[nH]c(N/N=C/c2ccc(Cl)cc2Cl)n1 [CBK024387],69.9598
19,Cc1[nH]c2c(C(=O)O)cccc2c1-c1ccccc1 [CBK012486],115.847
20,Cn1ccnc1C1(O)CCN(C(=O)C2(c3ccccc3)CC2)CC1 [CBK283538],87.5033
21,Cc1cc(C)nc(N/C(=N\C(=O)c2ccccc2)N2CCC(C(N)=O)CC2)n1 [CBK263910],66.7926
22,O=C(c1ccc(F)cc1)c1ccc(CSc2nnc3sc4ccccc4n23)cc1 [CBK265553],92.4614
23,CCCCN(C(=O)C(F)(F)c1ccccc1)c1c(N)n(CCC)c(=O)[nH]c1=O [CBK297769],81.184
24,COc1ccc([C@@]23CC[C@@H](NC(=O)Nc4ccc(F)c(F)c4)C[C@@H]2N(C)CC3)c(F)c1OC [CBK067405],49.1051
25,CC1(C)CC(=O)C2=C(C1)NC(Nc1nc3ccccc3o1)=NC2c1ccccn1 (stereo not drawn) [CBK269978],65.5777
